For six molecules, binding results are on record in publication PMC9911437.

Chains of the proteins cited; added tags and fusions are not shown. Lines headed by an entry give the natural chain unless they say otherwise; changes in a name come on top. Residues count along the entry.
UniProt Q79FL8: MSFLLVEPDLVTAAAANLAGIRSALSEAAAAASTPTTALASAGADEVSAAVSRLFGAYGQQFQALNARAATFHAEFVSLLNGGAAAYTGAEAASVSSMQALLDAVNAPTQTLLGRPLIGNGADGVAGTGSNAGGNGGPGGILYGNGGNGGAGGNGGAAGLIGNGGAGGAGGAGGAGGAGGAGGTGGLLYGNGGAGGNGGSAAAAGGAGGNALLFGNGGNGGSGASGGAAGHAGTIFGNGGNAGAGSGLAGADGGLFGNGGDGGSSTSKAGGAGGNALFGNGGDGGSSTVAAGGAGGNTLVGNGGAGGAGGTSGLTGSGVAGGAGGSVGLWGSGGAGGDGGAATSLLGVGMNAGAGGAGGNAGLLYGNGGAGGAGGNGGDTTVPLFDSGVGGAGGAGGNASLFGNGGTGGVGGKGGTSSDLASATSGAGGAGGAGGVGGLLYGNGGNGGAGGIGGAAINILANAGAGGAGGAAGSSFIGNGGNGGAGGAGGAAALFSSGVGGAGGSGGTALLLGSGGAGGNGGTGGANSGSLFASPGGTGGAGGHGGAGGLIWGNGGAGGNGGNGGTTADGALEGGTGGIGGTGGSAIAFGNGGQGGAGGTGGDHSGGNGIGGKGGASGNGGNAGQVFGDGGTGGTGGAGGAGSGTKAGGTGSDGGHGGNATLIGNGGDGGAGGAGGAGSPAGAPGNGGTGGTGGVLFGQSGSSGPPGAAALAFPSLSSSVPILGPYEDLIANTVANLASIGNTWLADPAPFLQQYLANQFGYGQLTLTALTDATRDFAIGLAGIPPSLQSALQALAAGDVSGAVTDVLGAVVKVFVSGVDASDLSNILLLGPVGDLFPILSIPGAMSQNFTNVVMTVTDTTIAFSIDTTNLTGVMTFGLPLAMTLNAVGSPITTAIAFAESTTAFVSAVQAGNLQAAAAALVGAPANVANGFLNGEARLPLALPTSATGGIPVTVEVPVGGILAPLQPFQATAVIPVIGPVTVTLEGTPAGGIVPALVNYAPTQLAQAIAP
GST-PE: residues 1-93 of Q79FL8
UniProt O35129: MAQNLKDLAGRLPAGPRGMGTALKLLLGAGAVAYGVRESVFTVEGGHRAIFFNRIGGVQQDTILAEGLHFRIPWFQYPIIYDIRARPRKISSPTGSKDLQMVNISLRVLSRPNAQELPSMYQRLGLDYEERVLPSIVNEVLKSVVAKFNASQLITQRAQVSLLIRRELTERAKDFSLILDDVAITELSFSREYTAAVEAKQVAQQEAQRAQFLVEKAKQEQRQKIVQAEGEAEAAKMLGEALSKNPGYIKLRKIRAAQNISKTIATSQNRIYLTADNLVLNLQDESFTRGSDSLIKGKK

These are yes or no findings as the source states them, for the method shown. For part of these data: In cells and extracts the contact can be indirect. Some binding calls cover weakened binding; strength is not graded here.

Experiment [1] concerns the target GST-PE_PGRS30 fusion protein (Mycobacterium tuberculosis) (UniProt Q79FL8). The experiment in a line: pull-down; both purified.
Experiment [2] concerns the target GST-PE (Mycobacterium tuberculosis) (UniProt Q79FL8). The experiment in a line: pull-down; GST-PE, GST-PGRS or GST-CT coupled to beads, mixed with recombinant His-PHB2 in 0.1% HNTG buffer, 4°C, 1 h; immunoblot with anti-GST and anti-PHB2; both purified.
Experiment [3] concerns the target prohibitin 2 (PHB2), endogenous in RAW264.7 cells (mouse (endogenous in RAW264.7)) (UniProt O35129). The experiment in a line: co-IP.
Experiment [4] deals with GST-PE_PGRS30 fusion protein (Mycobacterium tuberculosis) (UniProt Q79FL8). The experiment in a line: pull-down; GST-PE_PGRS30- or GST-coupled beads mixed with RAW264.7 whole cell lysate; immunoblot with anti-GST and anti-PHB2; only the target purified.
Experiment [5] shares this target. The experiment in a line: pull-down; in vitro binding of PHB1 and PE_PGRS30; details only in Supplementary Figure S2.

“His-PHB2 (1–50) (from UniProt O35129 1-50) (domain or fragment)”: in experiment [1], the binding result was “binds”.
Same read-out and setting: the entry for “His-PHB2 (51–299) (from UniProt O35129 51-299) (domain or fragment)” is “no binding”.
As for His-PHB2 (from UniProt O35129 1-299), the binding result in experiment [2] is “no binding”.
“PE_PGRS30-Myc (from UniProt Q79FL8 1-1011)”: the binding entry in experiment [3] is “binds”.
In the case of “prohibitin 2 (PHB2), endogenous in RAW264.7 cells (from UniProt O35129 1-299)”, in experiment [4], the binding result is reported as “binds”.

B1: PHB1 (protein, UniProt P67778 1-272)
chain: MAAKVFESIGKFGLALAVAGGVVNSALYNVDAGHRAVIFDRFRGVQDIVVGEGTHFLIPWVQKPIIFDCRSRPRNVPVITGSKDLQNVNITLRILFRPVASQLPRIYTSIGEDYDERVLPSITTEILKSVVARFDAGELITQRELVSRQVSDDLTERAATFGLILDDVSLTHLTFGKEFTEAVEAKQVAQQEAERARFVVEKAEQQKKAAIISAEGDSKAAELIANSLATAGDGLIELRKLEAAEDIAYQLSRSRNITYLPAGQSVLLQLPQ
Consider B1, for which the binding result in experiment [5] is “binds”.
